Test results taken from the supplement of paper PMC3334620.
Whole data set: some 33,000 sequences, median “E-score (-0.5 to 0.5)” near -0.01, cut for the highest 2% near 0.26. Some of the results follow.

The sequences below were run against Ste12 (UniProt P13574) (assay: PBM E-score (8-mer binding enrichment) (E-score (-0.5 to 0.5)); higher = stronger / more preferred TF binding; most listed sequences are background and not binding sites). Conditions: protein concentration: 200 nM; construct: GST-DNA-binding domain.
How it was run: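 Using PURExpress in vitro transcription/translation, GST-tagged yeast transcription factors were made in full-length or DNA-binding-domain form. These were applied at about 100-200 nM to double-stranded universal all-10-mer Agilent arrays, and bound protein was detected with fluorescent anti-GST. Scans were normalised with masliner before the Universal PBM Analysis Suite assigned E-scores to ungapped eight-base words pooled with their reverse complements.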

First: GTACCAAA
Second: GGGTTGTA
The “PBM E-score” value of the first is higher: 0.0457 for the first, -0.0262 for the second.

Compared with CGAGGACG, ATGGATCC is higher in “PBM E-score” value: -0.239 for the first, -0.0127 for the second.

Going from GATTCGAC to ATGGGGTA, the “PBM E-score” value falls from 0.12 to -0.0735.

First: TCGGAAGA
Second: ATTTACCG
The “PBM E-score” value of the first is lower: -0.00115 for the first, 0.216 for the second.

Going from GTCCGGTA to CGTATTTC, the “PBM E-score” value rises from -0.0776 to 0.132.

First: AACCTCAA
Second: CATATGCG
The “PBM E-score” value of the first is lower: 0.00447 for the first, 0.0335 for the second.

Compared with GGCTCTTA, AGTGGTTA is higher in “PBM E-score” value: -0.00744 for the first, 0.124 for the second.

First: AGGGTAGG
Second: CCATACGC
The “PBM E-score” value of the first is lower: -0.115 for the first, 0.139 for the second.

First: AAGCCTTA
Second: GTCGTGCA
The “PBM E-score” value of the first is lower: -0.143 for the first, -0.0983 for the second.

First: AAAGACTG
Second: AGTTATTC
The “PBM E-score” value of the first is lower: -0.334 for the first, -0.0103 for the second.

Compared with ATACAGTG, ACTTGGTA is lower in “PBM E-score” value: 0.162 for the first, -0.152 for the second.

Going from CTGGGGAC to GGGGTACC, the “PBM E-score” value rises from -0.25 to -0.0131.

Compared with TAGTAGAA, ATTGTAGA is lower in “PBM E-score” value: 0.182 for the first, 0.144 for the second.

Compared with GGGCTTAA, GCGGCGAA is lower in “PBM E-score” value: 0.148 for the first, 0.00331 for the second.

Going from GAGATCGA to GCTGACCC, the “PBM E-score” value falls from 0.0858 to -0.154.

Compared with ACGATCAA, CAACTGGC is lower in “PBM E-score” value: -0.0466 for the first, -0.24 for the second.

Compared with CCTCCACC, ACTTTACT is lower in “PBM E-score” value: 0.107 for the first, 0.0663 for the second.

Going from ACGGAGCA to CGTTAACA, the “PBM E-score” value rises from -0.0453 to -0.0349.

Compared with CGGGAGTC, ATAACAGG is higher in “PBM E-score” value: -0.12 for the first, 0.0055 for the second.

Compared with AATAACGT, CATGGATA is lower in “PBM E-score” value: 0.062 for the first, -0.0782 for the second.

Compared with GCGAAAAC, AACACTTA is higher in “PBM E-score” value: -0.0118 for the first, 0.252 for the second.

Compared with CACACTGG, AGAAGCGA is higher in “PBM E-score” value: -0.275 for the first, -0.053 for the second.

Compared with CAATCAGA, ACAGTCAG is higher in “PBM E-score” value: -0.0489 for the first, -0.0315 for the second.

Compared with ACAATTAA, CACCAACC is lower in “PBM E-score” value: 0.292 for the first, -0.0929 for the second.

First: CGTGTCGC
Second: AAGAGCAC
The “PBM E-score” value of the first is higher: 0.115 for the first, -0.143 for the second.

First: CCACGCGA
Second: GAGCCATA
The “PBM E-score” value of the first is higher: 0.0282 for the first, -0.0316 for the second.

Going from AAACCATA to CTCGCTAC, the “PBM E-score” value falls from 0.144 to -0.129.

Compared with GATAGTGA, CCAAGGGG is lower in “PBM E-score” value: 0.239 for the first, 0.0321 for the second.

First: AAGATGAG
Second: GAGCTAGC
The “PBM E-score” value of the first is higher: -0.0966 for the first, -0.146 for the second.

Compared with TCAACCCA, AGGTAAGC is lower in “PBM E-score” value: 0.0128 for the first, -0.0519 for the second.

First: ATGAGTGA
Second: CATGGGGC
The “PBM E-score” value of the first is higher: 0.0403 for the first, -0.0598 for the second.

Going from GCAGCCAA to CAGAAGTA, the “PBM E-score” value rises from 0.00098 to 0.174.

Compared with CTCGGCTC, CCAGAATC is lower in “PBM E-score” value: -0.0288 for the first, -0.105 for the second.

First: GCTCTAAC
Second: ATTCTGAC
The “PBM E-score” value of the first is lower: -0.0314 for the first, 0.0839 for the second.

First: CACTGAGG
Second: GATAATCA
The “PBM E-score” value of the first is lower: 0.0584 for the first, 0.0908 for the second.

Compared with ATGTGAAG, TGTAGTAA is lower in “PBM E-score” value: 0.25 for the first, 0.0284 for the second.

Compared with AATTGAAA, CATCATTC is lower in “PBM E-score” value: 0.412 for the first, 0.0217 for the second.

Compared with ATCGCGAA, AAGGCGAT is lower in “PBM E-score” value: 0.135 for the first, -0.139 for the second.

First: CTGGGCGA
Second: CGAAATCA
The “PBM E-score” value of the first is lower: -0.188 for the first, 0.216 for the second.

First: CGAGAAGA
Second: ATCGACCG
The “PBM E-score” value of the first is lower: -0.0647 for the first, -0.0422 for the second.

First: CGAGTTGC
Second: GCCTCACA
The “PBM E-score” value of the first is lower: 0.0105 for the first, 0.0125 for the second.

First: ATCTGCAT
Second: ACTGTTAT
The “PBM E-score” value of the first is lower: 0.0274 for the first, 0.142 for the second.

Compared with AAGTAACT, AGTGATAG is lower in “PBM E-score” value: 0.0625 for the first, -0.118 for the second.

Going from TGCACGAA to TCAAAAAA, the “PBM E-score” value rises from 0.207 to 0.32.

Compared with CCAGCCGG, TCAGTGGA is higher in “PBM E-score” value: -0.121 for the first, -0.028 for the second.

Compared with ACAAACGA, ACACTCCA is lower in “PBM E-score” value: 0.2 for the first, 0.0449 for the second.

First: ATTACGTG
Second: CGCTTACG
The “PBM E-score” value of the first is higher: 0.0722 for the first, -0.345 for the second.
